Measurements: PubChem BioAssay AID1508623 (National Center for Advancing Translational Sciences (NCATS), 2021)
Screen size: about 48,000 compounds; about 450 (0.94%) were called active. About 19% were inconclusive and are not listed. The call rests on the fitted dose curve; in most records, active means well fitted inhibition curve with a large enough effect; inconclusive means small, poorly fitted or top-dose-only effect; inactive means no such curve, though single readings can be large or run the other way. Some of the results follow.

test: Primary qHTS for Identification of Small Molecule Inhibitors of Huntingtin Promoter Activity; settings: HEK293 HTT promoter firefly luciferase reporter (activity 0% = vehicle and -100% = no light), 24 h; series mostly up to 57.5 µM; activity change, negative = inhibition: at the top concentration; further: nearly all actives have a fitted effect of over 50% in size
Method in brief: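 HEK293 luciferase promoter-reporter cells (2,500/well) plated 24 h, then compounds added at up to 57.5 uM final for 24 h at 37 °C. Firefly luminescence by Dual-Glo, normalized to vehicle (0%) and zero RLU (-100%).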

Activity change, negative = inhibition, inactive:
CCOCCCn1c(=N)c(C(=O)NC2CCCCC2)cc2c(=O)n3ccccc3nc21 15.4%
CCc1nn(CC(=O)NCc2ccccc2)c(=O)c2cccn12 -4.84%
COc1cccc(-c2cn3c(n2)sc2cc(C(=O)NC4CCCCC4)ccc23)c1 -28.6%
CCc1ccccc1Nc1nn2c(=O)c3ccc(C(=O)NC(C)C)cc3nc2s1 -3.42%
COc1cc(NC(=O)C2CCN(c3cnccn3)CC2)cc(OC)c1 -11.7%
O=C(Cn1c(=O)n(Cc2ccco2)c(=O)c2oc3ccccc3c21)Nc1ccccc1 -6.61%
COc1ccccc1N1CCN(C(=O)C2CCN(S(=O)(=O)c3cn(C)cn3)CC2)CC1 -10.4%
COc1ccc(-c2cc(=O)c3c(O)cc(O[C@@H]4O[C@H](CO[C@@H]5O[C@@H](C)[C@H](O)[C@@H](O)[C@H]5O)[C@@H](O)[C@H](O)[C@H]4O)cc3o2)cc1O 3.77%
CCOCCCNC(=O)c1ccc2c(=O)n(CCc3ccccc3)c(=O)[nH]c2c1 9.19%
CCc1ccc2oc(-c3cc(NC(=O)c4cc(OC)c(OC)c(OC)c4)ccc3O)nc2c1 9.56%
COc1cc(Nc2ncc(F)c(Nc3ccc4c(n3)N(COP(=O)(O)O)C(=O)C(C)(C)O4)n2)cc(OC)c1OC -2.75%
COc1cccc(NC(=O)C2CCC(CNS(=O)(=O)c3csc(C(N)=O)c3)CC2)c1 (centres undefined) -7.29%
CC(=O)c1ccc(NC(=O)CSc2nc(=O)n(Cc3ccccn3)c3c2CCC3)cc1 0%
Cc1ccc(NS(=O)(=O)c2ccc3oc(=O)c4ncn(C)c4c3c2)cc1C -12.9%
O=C(CCC1N=C2c3ccccc3N=C(SCc3ccc(Cl)cc3)N2C1=O)NCc1cccs1 (centres undefined) -10.5%
COc1ccc(OCC(O)Cn2c(=N)n(CCN3CCCCC3)c3ccccc32)cc1 (centres undefined) -15.9%
COc1ccccc1C(=O)n1nc(-c2ccccc2)nc1NCc1ccc(Cl)cc1 3.89%
O=C(CCc1ccccc1)NC1CC(=O)N(c2cccc(F)c2)C1 (centres undefined) 4.55%
CCC(=O)N1CCc2cc(S(=O)(=O)NC(CC(C)C)C(=O)Nc3cccc(C)c3C)ccc21 (centres undefined) -16.8%
CN(C)c1ccc(CNC(=O)CN2C(=O)C3CCCCN3c3ccc(C(=O)N4CCCC4)cc32)cc1 (centres undefined) -13.6%
CCC(C)NC(=O)c1cc2n(n1)CCCN(Cc1ccc(C)cc1)C2=O (centres undefined) -25.4%
Cc1ccc(N2CCN(C(=O)c3cccn4c(=O)c5ccc(Cl)cc5nc34)CC2C)cc1 (centres undefined) 15%
COc1ccc(C(CNC(=O)c2oc3cc(C)c(C)cc3c2C)N2CCCCC2)cc1 (centres undefined) -4.77%
CCn1cc(C(=O)N2CCN(c3ccccc3)CC2)c(=O)c2cc(S(=O)(=O)N(C)C)ccc21 -5.65% [at 11.5 µM]
Cc1c2cnn(CC(=O)NCc3ccc(Cl)cc3)c(=O)c2c(C)n1Cc1ccc(F)cc1 -18.3%
O=C(Cc1ccc(F)cc1)NCCc1csc2nc(-c3ccccc3F)nn12 -0.797%
COc1ccc(CCNS(=O)(=O)c2c(C)nc3sccn3c2=O)cc1OC -1.42%
Cc1cc(NS(=O)(=O)c2ccc(NC(=O)COc3ccccc3Br)cc2)no1 -17.5%
Cc1ccccc1Nc1nn2c(=O)c3ccc(C(=O)NCc4cccs4)cc3nc2s1 -32.2%
CC(=O)Nc1ccc(C)cc1-c1nc2ccccc2n(CC(=O)c2ccc(C)c(C)c2)c1=O -6.95%
COc1ccc(S(=O)(=O)n2nc(C)c(S(=O)(=O)N3CCCCCC3)c2C)cc1C -4.28%
O=C(NCCc1csc(-c2ccc(C(F)(F)F)cc2)n1)C(=O)Nc1ccc(F)c(Cl)c1 1.54%
CCOc1ccccc1NS(=O)(=O)c1ccc(N2CCCCS2(=O)=O)cc1 -19.6%
CCOC(=O)c1c(N)n(-c2ccc(CC)cc2)c2nc3ccccc3nc12 -14.9%
Cc1ccc(C)c(NC(=O)Cn2c(SCC(=O)NCc3ccccc3)nc3ccccc32)c1 -18.1%
O=C(CN1C(=O)CSc2ccc(S(=O)(=O)N3CCOCC3)cc21)NCCCN1CCCCC1 -6.29%
Cc1ccc(N(CC(=O)N2CCN(c3ccccc3)CC2)S(=O)(=O)c2c(C)noc2C)cc1 7.69%
CC(C)CCCC(C)CCCC(C)CCCCC(C)CCCC(C)CCCC(C)C (centres undefined) -1.64%
CC(=O)N1CCOc2cc(S(=O)(=O)NCc3ccccc3Cl)c(Cl)cc21 -10.5%
CCc1ccc(NC(=O)Cn2c(=O)n(-c3ccccc3C)c(=O)c3c2c2cc(OC)ccc2n3C)cc1 -25.8%
CCOC(=O)c1ccccc1NC(=O)N1CCC(CN2CCOCC2)CC1 -23.6%
CCN1CCN(C(c2ccccc2Cl)c2sc3nc(-c4ccco4)nn3c2O)CC1 (centres undefined) 0%
CCOc1ccc(NC(=O)Cn2nc3c(cc2=O)CC(C)CC3)cc1 (centres undefined) 1.27%
Cc1ccc(-c2noc(-c3nnn(CC(=O)Nc4ccc(C)c(Cl)c4)c3N)n2)cc1 3.5%
CC(C)Oc1ccc(C(=O)NCC(c2ccc(N(C)C)cc2)N2CCc3ccccc32)cc1 (centres undefined) -11.6%
CCOc1ccc(N(CC(=O)Nc2ccc(OC)cc2)S(=O)(=O)c2ccc(Cl)cc2)cc1 1.5%
Cc1ccc2c(C)c(C(=O)N(Cc3ccc(N(C)C)cc3)Cc3ccco3)oc2c1C -18.9%
O=C(CCSCCc1ccccn1)Nc1ccc(Cl)cc1 -15.5%
CCn1c(=O)c2sccc2n2c(CCC(=O)Nc3ccc(F)cc3)nnc12 -7.97%
CCN(c1ccccc1)S(=O)(=O)c1nnc(NC(=O)C2CCCCC2)s1 -1.84%
COc1ccc2c(c1)c(N1CCCC1=O)c(C(=O)Nc1cc(C)c(Cl)cc1OC)n2C -19.3%
Cc1ccc2c(c1)cc1c(=O)n(Cc3ccccc3Cl)nc(C)n12 -7.73%
Oc1c(C(c2ccccc2)N2CCCC2)sc2nc(-c3ccco3)nn12 (centres undefined) -1.54%
CCOC(=O)Cc1ccc(NC(=O)NC(C)c2c(-n3cccc3)sc(C)c2C)cc1 (centres undefined) -24.1%
Cc1cc2oc(=O)c(CC(=O)O)c(C)c2c2occ(-c3ccccc3)c12 61.1%
COc1cc(-n2c(=O)c3ccccc3n(Cc3cccc(Cl)c3)c2=O)cc(OC)c1OC -26.2%
CCOC(=O)c1c(C)[nH]c(CCC(=O)NCc2cc(OC)c(OC)c(OC)c2)c1C 2.43%
CCNC(=O)CC1C(=O)N(c2ccc(C)cc2)C(=O)N1CCOC (centres undefined) -9.37%
COc1ccc(CNC(=O)CN2C(=O)CCn3nc(-c4cn(C)c5ccccc45)cc32)cc1 5.38%
